Test results reported in paper PMC8204860.
Where a chain is given by its changes, count along the chain named. These are yes or no findings as the source states them, for the method shown. In cells and extracts the contact can be indirect. Some entries that bind do so weakly or less than the wild type. Sequences can lack the tags named with a protein.

Key:
Assay in all cases: co-IP; yeast lysate (50 mM Tris pH 7.5, 0.2% NP40, 150 mM NaCl, 1 mM EDTA); Trs85-mNeonGreen captured on mNeonGreen-Trap resin, Trs23-6xHis-3xFLAG detected by anti-FLAG blot
[1] = target: T1, Trs85-mNeonGreen R618A, R619A, R620A, K621A (Saccharomyces cerevisiae) (UniProt P46944)
T1 sequence: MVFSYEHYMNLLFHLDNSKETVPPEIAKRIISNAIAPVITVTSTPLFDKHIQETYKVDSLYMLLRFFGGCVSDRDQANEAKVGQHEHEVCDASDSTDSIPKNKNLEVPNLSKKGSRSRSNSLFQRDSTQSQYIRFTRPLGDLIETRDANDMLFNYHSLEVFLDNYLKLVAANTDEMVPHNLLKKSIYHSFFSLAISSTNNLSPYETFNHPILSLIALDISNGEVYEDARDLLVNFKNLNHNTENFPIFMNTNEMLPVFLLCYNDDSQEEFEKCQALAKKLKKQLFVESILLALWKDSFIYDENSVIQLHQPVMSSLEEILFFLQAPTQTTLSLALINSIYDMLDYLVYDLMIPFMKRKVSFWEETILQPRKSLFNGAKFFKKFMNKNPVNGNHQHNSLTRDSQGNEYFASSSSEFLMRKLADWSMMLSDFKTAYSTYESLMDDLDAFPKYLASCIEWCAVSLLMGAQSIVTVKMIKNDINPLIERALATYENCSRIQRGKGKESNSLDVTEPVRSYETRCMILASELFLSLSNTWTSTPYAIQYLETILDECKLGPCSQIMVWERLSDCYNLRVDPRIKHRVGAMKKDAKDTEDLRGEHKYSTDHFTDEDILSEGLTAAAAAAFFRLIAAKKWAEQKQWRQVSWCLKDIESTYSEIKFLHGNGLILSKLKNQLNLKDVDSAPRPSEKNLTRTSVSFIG

[2] = target: T2, Trs85-mNeonGreen, wild-type (Saccharomyces cerevisiae) (UniProt P46944)
T2 sequence: T1 sequence with A618R, A619R, A620R, A621K

[3] = target: T3, Trs85-mNeonGreen Δ575-603 (Saccharomyces cerevisiae) (UniProt P46944)
T3 sequence: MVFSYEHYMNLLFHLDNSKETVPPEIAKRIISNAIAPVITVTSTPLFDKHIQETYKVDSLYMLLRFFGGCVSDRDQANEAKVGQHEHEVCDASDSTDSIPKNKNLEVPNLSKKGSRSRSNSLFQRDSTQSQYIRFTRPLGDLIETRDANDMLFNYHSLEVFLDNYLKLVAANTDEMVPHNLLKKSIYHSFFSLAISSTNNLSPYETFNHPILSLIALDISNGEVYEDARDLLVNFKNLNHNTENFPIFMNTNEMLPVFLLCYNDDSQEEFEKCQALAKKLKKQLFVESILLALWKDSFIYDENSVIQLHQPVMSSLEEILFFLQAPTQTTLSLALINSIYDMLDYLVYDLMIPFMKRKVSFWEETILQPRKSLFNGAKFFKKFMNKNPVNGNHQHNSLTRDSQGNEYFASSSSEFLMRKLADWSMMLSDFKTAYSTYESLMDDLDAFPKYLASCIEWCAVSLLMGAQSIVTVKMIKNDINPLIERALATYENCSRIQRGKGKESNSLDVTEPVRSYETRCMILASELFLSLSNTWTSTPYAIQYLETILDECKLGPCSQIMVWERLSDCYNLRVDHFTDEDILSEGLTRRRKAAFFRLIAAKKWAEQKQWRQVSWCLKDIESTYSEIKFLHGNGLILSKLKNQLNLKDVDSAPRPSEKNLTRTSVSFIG

binding [1]: no binding | binding [2]: binds | binding [3]: binds
B1: TRAPP core (endogenous in yeast, with Trs23-6xHis-3xFLAG) (complex, UniProt Q03784 1-219; P38334 1-175; Q03337 1-283; P36149 1-193; Q03630 1-159; Q99394 …)
chain 1: MAIETILVINKSGGLIYQRNFTNDEQKLNSNEYLILASTLHGVFAIASQLTPKALQLTQQTNIENTIPYIPYVGMSSNRSDTRNGGGNNNKHTNNEKLGSFKGDDFFKEPFTNWNKSGLRQLCTDQFTMFIYQTLTGLKFVAISSSVMPQRQPTIATTDKPDRPKSTSNLAIQIADNFLRKVYCLYSDYVMKDPSYSMEMPIRSNLFDEKVKKMVENLQ
chain 2: MPQYFAIIGKKDNPVYEIEFTNAENPQGFPQDLKELNPFILHASLDIVEDLQWQINPTSQLNGNGGNGSNGGGGFLRSRAVNNTDNCYLGKVDHFYGLAITAYISYSGMKFVMIHGNSANSSVVIDDNNMRSFYQEVHELYVKTLMNPFYKITDPIRSPAFDSRVRTLARKHLSK
chain 3: MSQRIIQPSASDQQFPGKSDGYEYTVGPKQAITSEASTTYIPSRIYSESLLFKRQEASLSAMAFLFQEMISQLHRTCKTAGDFETKLSDYGHNIGIRLLELLNFRASVSPSSLPRASAFLSQNESSSKLSNASNSPGMLANSSTATSASANERLQEKQTESLSNYITKMRRRDLKILDILQFIHGTLWSYLFNHVSDDLVKSSERDNEYMIVDNFPTLTQFIPGENVSCEYFVCGIIKGFLFNAGFPCGVTAHRMPQGGHSQRTVYLIQFDRQVLDREGLRFG
chain 4: MVSTTQSRSLKAMGEEIWKNKTEKINTELFTLTYGSIVAQLCQDYERDFNKVNDHLYSMGYNIGCRLIEDFLARTALPRCENLVKTSEVLSKCAFKIFLNITPNITNWSHNKDTFSLILDENPLADFVELPMDAMKSLWYSNILCGVLKGSLEMVQLDCDVWFVSDILRGDSQTEIKVKLNRILKDEIPIGED
chain 5: MGIYSFWIFDRHCNCIFDREWTLASNSASGTINSKQNEEDAKLLYGMIFSLRSITQKLSKGSVKNDIRSISTGKYRVHTYCTASGLWFVLLSDFKQQSYTQVLQYIYSHIYVKYVSNNLLSPYDFAENENEMRGQGTRKITNRNFISVLESFLAPMVNQ
chain 6: MSSTHSNNVGHPQSSPQGPLTEQQRAQQQYQIFENSLPKVSQSVYQMLLNEMVPLAMGIERQISGDVISSDSNVTSENGNINNMIKRLKIEEHHTVDIIRSHNLIHELYKADEEEKEKVLARLRNIGFQIGLKLSELLIFSNNPNLKFKEMDLLLIMKFICRDVWKQIFGKQIDNLKTNHRGTFYLLDYDYRPIQSFSLEEDAKNEELKMIEPFLEIPVGIIRGVLSSLGYSSEEVICLASFIDRPTDRPKTAFPKGVSFHVQVTMPQ
